Reference: paper PMC4336329 (PLoS ONE, 2015)
Out of some 310,000 compounds screened, about 2,200 (0.71%) showed an effect of 50% or more. The effect is printed as a negative number. Some of the results follow.

These molecules were tested against human ether-à-go-go-related gene (hERG) potassium channel (human, UniProt Q12809) (assay: primary screen, population patch clamp on CHO cells stably expressing hERG).
Sequence of human ether-à-go-go-related gene (hERG) potassium channel (Q12809 whole entry, looked up): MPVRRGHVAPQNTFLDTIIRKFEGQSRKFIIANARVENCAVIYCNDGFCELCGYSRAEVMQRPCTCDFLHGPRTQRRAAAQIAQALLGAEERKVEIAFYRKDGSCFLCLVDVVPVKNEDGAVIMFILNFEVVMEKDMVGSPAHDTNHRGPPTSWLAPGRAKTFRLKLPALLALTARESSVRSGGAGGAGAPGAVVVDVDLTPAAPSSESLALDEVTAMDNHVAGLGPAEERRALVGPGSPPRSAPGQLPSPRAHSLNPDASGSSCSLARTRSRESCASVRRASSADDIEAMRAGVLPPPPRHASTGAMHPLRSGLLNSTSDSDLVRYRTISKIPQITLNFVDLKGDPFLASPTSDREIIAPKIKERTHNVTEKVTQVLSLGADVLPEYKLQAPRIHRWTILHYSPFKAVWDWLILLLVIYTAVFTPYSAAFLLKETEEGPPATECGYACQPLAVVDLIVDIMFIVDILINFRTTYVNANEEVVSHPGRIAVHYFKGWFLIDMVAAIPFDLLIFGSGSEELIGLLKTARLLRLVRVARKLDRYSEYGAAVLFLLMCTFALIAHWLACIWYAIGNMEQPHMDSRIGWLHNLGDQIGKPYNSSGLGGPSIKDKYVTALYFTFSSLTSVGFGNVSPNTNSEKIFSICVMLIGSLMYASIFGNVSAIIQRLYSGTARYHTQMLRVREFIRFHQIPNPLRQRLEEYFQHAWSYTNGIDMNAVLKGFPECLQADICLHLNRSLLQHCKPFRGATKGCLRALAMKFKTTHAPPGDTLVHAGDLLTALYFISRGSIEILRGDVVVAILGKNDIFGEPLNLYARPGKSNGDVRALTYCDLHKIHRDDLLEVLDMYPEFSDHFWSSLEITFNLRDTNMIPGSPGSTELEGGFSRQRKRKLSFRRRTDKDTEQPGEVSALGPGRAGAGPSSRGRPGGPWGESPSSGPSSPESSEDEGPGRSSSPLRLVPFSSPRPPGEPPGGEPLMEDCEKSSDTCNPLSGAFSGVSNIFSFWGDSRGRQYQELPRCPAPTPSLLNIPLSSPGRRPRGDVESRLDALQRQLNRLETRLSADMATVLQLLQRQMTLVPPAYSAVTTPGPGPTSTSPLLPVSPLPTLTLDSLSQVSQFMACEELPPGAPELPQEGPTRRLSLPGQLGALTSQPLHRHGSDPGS

| SMILES | hERG current change (%, negative = inhibition) at 1uM |
| --- | --- |
| CCc1ccc(OC(=O)c2cccnc2)cc1 | 16.7% |
| Fc1ccccc1OCCSc1nc2ccccc2o1 | 12.6% |
| Cc1ccc(S(=O)(=O)NCC(=O)Nc2ccc3c(c2)OCO3)cc1 | 8.92% |
| Cc1cc(C)cc(C(=O)NCC(=O)OCN2C(=O)c3ccccc3C2=O)c1 | 11.5% |
| Cc1cc(C)cc(OCCn2nnc3ccccc32)c1 | 17.4% |
| O=C(Nc1ccc2ccccc2n1)c1ccccc1Cl | 8.41% |
| O=S(=O)(NCCc1ccccc1F)c1cccc(S(=O)(=O)N2CCOCC2)c1 | 8.53% |
| O=C(NCCc1ccccc1)/C(=C\c1cccc([N+](=O)[O-])c1)NC(=O)c1ccco1 | -50.6% |
| COc1ccc(COc2cccnc2N)cc1 | 16.7% |
| Clc1ccc(-c2nc(N3CCOCC3)nc3ccccc23)cc1 | 12.3% |
| CCn1c(SCC(=O)OC)nnc1-c1ccncc1 | 8% |
| CCN(CC)C(=O)Cn1cc(C(=O)C(=O)NCC2COc3ccccc3O2)c2ccccc21 (centres unmarked) | -10.6% |
| COc1cc2c(cc1OC)CN(C(=O)CCNS(=O)(=O)c1ccc(Br)cc1)CC2 | 4.55% |
| O=C(NCc1cccs1)C1CCN(S(=O)(=O)c2cccc3cccnc23)CC1 | 6.69% |
| Cc1cc(NC(=O)C2CCCC2)n(-c2nc3ccccc3[nH]2)n1 | 7.38% |
| CCOc1ccc(S(=O)(=O)N2CCCCC2)cc1NC(=O)Cc1cccc(C(F)(F)F)c1 | 10.6% |
| COc1ccc(CC(=O)NCC2COc3ccccc3O2)cc1 (centres unmarked) | 4.8% |
| CCS(=O)(=O)CCn1c([N+](=O)[O-])cnc1C | 8.99% |
| NC(=O)c1c(NC(=O)c2ccc([N+](=O)[O-])o2)sc2c1CCCC2 | 19.9% |
| CCc1nn(C(CC)C(=O)NCCCc2ccccc2)c(=O)c2cc3occc3n12 (centres unmarked) | 4.25% |
| O=C1NN=C(c2ccc(Cl)cc2)CC1c1cccc(Br)c1 (centres unmarked) | 12% |
| CCCCn1nnnc1SCC(=O)Nc1ccc(N(C)C)cc1 | 12.1% |
| O=C(CNC(=O)c1ccc2c(c1)OCCO2)N/N=C/c1ccc(O)cc1O | 7.74% |

| SMILES | hERG current change (%, negative = inhibition) at 1uM |
| --- | --- |
| COc1ccc(N2CCN(C(=O)CN3C(=O)NC(c4ccc(OC)cc4)(c4ccc(OC)cc4)C3=O)CC2)cc1 | 5.72% |
| CCOC(=O)Cc1csc(NC(=O)c2cc(C)on2)n1 | 10.8% |
| COc1ccc(CCN2CC(C(=O)Nc3cc(F)ccc3F)CC2=O)cc1OC (centres unmarked) | 12.4% |
| CN(C)C(/C=C/Nc1ccccc1F)=C(C#N)C#N | 12.7% |
| CN1CC(C(=O)c2ccc(Cl)cc2)C(c2ccccc2F)C1 (centres unmarked) | -11.5% |
| CSc1nsc(SC)c1NC(=O)OCc1ccccc1 | 12.6% |
| Cc1ccc(S(=O)(=O)N2CCCC2CNC(=O)C(=O)Nc2ccc(F)cc2F)cc1 (centres unmarked) | 6.03% |
| Cc1ccc(NC(=O)NCCCN2CCCC2=O)cc1C | 18.1% |
| CCOC(=O)C1=C(O)C(=O)N(Cc2cccnc2)C1c1ccc(OC)cc1 (centres unmarked) | 17.3% |
| COc1ccc(S(=O)(=O)N(C)CC(=O)NCc2ccccc2)cc1OC | 18.8% |
| O=C(NCCC1=CCCCC1)c1cc(S(=O)(=O)N2CCOCC2)c(Cl)cc1Cl | 3.7% |
| O=C(NCCO)c1ccc(Oc2ccc(C(F)(F)F)cc2[N+](=O)[O-])cc1 | 10.2% |
| COc1ccc(CCNC(=O)c2c(C)nn(-c3ccccc3)c2Cl)cc1OC | 15.8% |
| CCOC(=O)c1c(NC(=O)CSC(=S)N2CCOCC2)sc(C)c1C | 1.75% |
| Cc1ccccc1C(=O)NNC(=O)C(=O)Nc1cccc(Cl)c1C | 5.31% |
| Cc1ccc(-c2nnc(SCC(=O)N/N=C/c3ccccc3C(=O)O)n2-c2ccc(C)cc2)cc1 | 10.2% |
| CC1(C)CC(NC(=O)CCC2CCCC2)CC(C)(C)N1 | -1.96% |
| Nc1nnnn1/N=C/c1cc(Cl)cc(Cl)c1O | 18.1% |
| Cn1c(O)c(/C=N/NC(=O)c2ccncc2)c(=O)n(C)c1=S | 13.8% |
| COc1cccc(CN(C)CC(=O)Nc2cccc(S(N)(=O)=O)c2)c1OC | -0.0832% |
| O=[N+]([O-])c1ccc(N/N=C/c2ccc(OCc3cccc4ccccc34)cc2)nc1 | 9.93% |
| CC(=O)Nc1cccc(-c2nnc3n2CC(C)S3)c1 (centres unmarked) | 9.88% |
| N#C/C(=C\C1=C(N2CCOCC2)C(=C/c2cccc([N+](=O)[O-])c2)/CC1)C(=O)Nc1ccccc1F | 12.2% |

| SMILES | hERG current change (%, negative = inhibition) at 1uM |
| --- | --- |
| CC(NC(=O)COC(=O)c1ccc(CO)cc1)C1CC2CCC1C2 (centres unmarked) | 12.8% |
| Cc1nnc(SCCn2c(N3CCN(Cc4ccccc4)CC3)nc3c2c(=O)[nH]c(=O)n3C)s1 | -17.3% |
| Cc1cc(C)c(NC(=O)C2CCCN2CCOC(=O)c2ccccc2)c(C)c1.Cl (centres unmarked) | 12.1% |
| Cc1c(Br)c([N+](=O)[O-])nn1CC(=O)NCc1ccco1 | 3.93% |
| CCOC(=O)N1CCN(CC(O)COc2c(C)cc(C)cc2C)CC1.Cl (centres unmarked) | 3.11% |
| C#Cc1ccc([C@H]2C=C(C(=O)N3CCOCC3)O[C@@H](OCc3ccc(CO)cc3)C2)cc1 | 7.9% |
| COc1ccc(CC(=O)N2CCNC2=O)cc1 | -5.51% |
| CCOc1ccc(/C=C/C(O)=C2/C(=O)NC3(C)CC2c2ccccc2O3)cc1OC (centres unmarked) | 6.96% |
| CC(=O)c1cccc(Nc2nc(-c3sc(N)nc3C)cs2)c1 | 10.8% |
| CCOC(=O)C1=C(C)NC(=S)NC1c1ccsc1 (centres unmarked) | 4.51% |
| CN(C)c1nc(Nc2ccccc2)nc(Oc2ccc(=O)[nH]n2)n1 | 20.5% |
| CCOc1cc(CNCc2cccs2)cc(Br)c1OC.Cl | 5.38% |
| CN(NC(=O)c1ccccc1)c1ncc(C(F)(F)F)cc1Cl | 15.6% |
| Cc1ccccc1Cn1c(C)nc2ccc([N+](=O)[O-])cc2c1=O | 14.2% |
| CCC(C)(C)NC(=O)C(c1ccc(C)cc1)N(CCN1CCOCC1)C(=O)CNC(=O)c1cccs1 (centres unmarked) | 12.4% |
| Cc1cc(C(c2ccc(C)o2)c2ccc(C)o2)c(O)c([N+](=O)[O-])c1 | 8.53% |
| COCCN(C(=O)CCSc1ccc(F)cc1)c1c(N)n(Cc2ccccc2)c(=O)[nH]c1=O | -0.304% |
| COc1cccc(C(=O)NC(=S)Nc2nnn(C)n2)c1 | 10.9% |
| COc1cc(-c2cc(=O)c3c(O)c(OC)c(OC)c(OC)c3o2)cc(OC)c1OC | 12.5% |
| CCCCOc1cccc(-c2cc(C(=O)NNC(=S)NCC)c3ccccc3n2)c1 | 12.1% |
| O=[N+]([O-])c1cncc([N+](=O)[O-])c1Nc1cccc(O)c1 | 12.9% |
| CC1=NNC(=O)C1C(c1ccccc1)C(C#N)C#N (centres unmarked) | 10.6% |
| CC1CCc2c(nc3ncnn3c2NCCc2ccccc2F)C1 (centres unmarked) | 0.709% |

| SMILES | hERG current change (%, negative = inhibition) at 1uM |
| --- | --- |
| COc1ccc(S(=O)(=O)N2CCC(C(=O)N[C@H](C(=O)N3CCCCCC3)C(C)C)CC2)cc1 | 12.3% |
| CSc1nc2c(c(=O)[nH]1)CCCC2 | 15.6% |
| O=C(NCCCCCNC(=O)c1ccco1)c1ccco1 | 15.5% |
| Cc1cc(C)cc(Oc2cc(NC(=O)c3cn(C)nc3C)cc([N+](=O)[O-])c2)c1 | 8.34% |
| Cc1cc(C(=O)CSc2nc(N)cc(=O)[nH]2)c(C)n1-c1cccc(F)c1 | 1.93% |
| COc1ccc(-n2cc(CNC3CCC(O)CC3)c(-c3cccc(F)c3)n2)cc1 (centres unmarked) | 4.86% |
| CCOc1ccccc1C(=O)NC1CCNCC1 | 16.5% |
| O=C(CSc1nc(O)c(C2CCCCC2)c(=O)[nH]1)Nc1ccccc1Cl | 7.21% |
| CN(C)c1ccc(CNC23CN4CN(CN(C4)C2)C3)cc1 | 5.35% |
| COc1ccc(N(CC(=O)NCc2cccs2)S(=O)(=O)c2c(C)nn(C)c2C)cc1 | 5.96% |
| CC(C)(C)OC(=O)NC(Cc1ccccc1)C(=O)NCCCC(=O)O (centres unmarked) | 8.24% |
| Cc1ccc(C(=O)OCCc2c(C)[nH]n(-c3ccccc3)c2=O)cc1 | 3.33% |
| Cc1ccc(C)c(-c2nc3cc(N)ccc3o2)c1 | 16.5% |
| O=C(NC1CCCCC1)N1CCN(c2ncccn2)CC1 | 15.3% |
| CC(c1ccccc1)N1C(=O)C2C3C=CC(C4CC34)C2C1=O (centres unmarked) | 11.8% |
| O=c1[nH]c2ccc(NS(=O)(=O)c3ccc4ccccc4c3)cc2[nH]1 | 9.88% |
| CN1CCN(C(=O)c2cc3cc(Cl)ccc3[nH]2)CC1.Cl | -0.452% |
| COc1ccc(C)cc1NC(=O)CN1C(=O)COc2ccc(S(=O)(=O)N3CCC(C)CC3)cc21 | 16.8% |
| CN(C)/C=C/C(=O)c1ccc(F)cc1F | 10.8% |
| CO/N=C(\CS(=O)(=O)Cc1ccc(OC)cc1)c1ccc(Cl)cc1 | 14.9% |
